# In the antibiotic and cytotoxicity screens of Wong et al. (2023):
# Some of the results follow.
# Columns and labels:
# [1] = test system: HSkMC (human skeletal muscle cells); assay: cytotoxicity call (relative viability < 0.9); conditions: 10 µM
# [2] = test system: HepG2; assay: cytotoxicity call (relative viability < 0.9); conditions: 10 µM
# [3] = test system: S. aureus RN4220; assay: growth inhibition call (relative growth <= 0.2); conditions: 50 µM
SMILES,cytotoxicity call [1],cytotoxicity call [2],growth inhibition call [3]
C[C@@H]1CN([C@H](C)CO)C(=O)c2cccc(NC(=O)NC3CCCCC3)c2O[C@H]1CN(C)C(=O)Nc1ccc(C(F)(F)F)cc1,inactive,active,inactive
O=C(C[C@H]1CC[C@H]2[C@@H](COC[C@H](O)CN2S(=O)(=O)c2ccc(Cl)cc2)O1)NCCN1CCCC1,inactive,inactive,inactive
COc1ccccc1S(=O)(=O)N[C@H]1C=C[C@@H](CC(=O)N2CCOCC2)O[C@@H]1CO,inactive,inactive,inactive
COCC(=O)Nc1ccc2c(c1)C(=O)N(C)[C@@H]1CC[C@@H](CC(=O)NC3Cc4ccccc4C3)O[C@H]1CO2,inactive,inactive,inactive
C[C@H](CO)N1C[C@H](C)[C@H](CN(C)S(=O)(=O)c2cn(C)cn2)Oc2ccc(NC(=O)c3ccncc3)cc2C1=O,inactive,inactive,inactive
NC(=O)CC[C@H]1CCCNC1,inactive,inactive,inactive
CC(C)NC(=O)N(C)C[C@H]1Oc2ccc(NC(=O)NC3CCCCC3)cc2CC(=O)N([C@H](C)CO)C[C@H]1C,inactive,inactive,inactive
CN(CCCCCCCCCCN(C)C(=O)Oc1cccc([N+](C)(C)C)c1)C(=O)Oc1cccc([N+](C)(C)C)c1,inactive,inactive,active
CCOC(=O)[C@H]1C/C=C/C[C@H](C(=O)OCC)C(=O)O[C@H]2[C@@H](OC)O[C@H](COC(=O)NCCCCCC(=O)NO)[C@@H](OC(=O)Nc3ccccc3)[C@@H]2OC1=O,inactive,inactive,inactive
CC(C)(C)[S@@+]([O-])N1Cc2cc(C(=O)NCc3ccc4c(c3)OCO4)nc(-c3ccc(-c4ccc(C#N)cc4)cc3)c2[C@H]1CCO,inactive,inactive,inactive
Cc1noc(C)c1NC(=O)Nc1ccc2c(c1)C(=O)N([C@H](C)CO)C[C@@H](C)[C@H](CN(C)C(=O)Nc1cccc3ccccc13)O2,inactive,inactive,inactive
Cc1noc(C)c1NC(=O)Nc1ccc2c(c1)C(=O)N([C@H](C)CO)C[C@H](C)[C@H](CN(C)Cc1ccc(-c3ccccc3)cc1)O2,inactive,inactive,inactive
CN(C)CCNC(=O)[C@@H]1CCS(=O)(=O)[C@H]2CN(C(=O)Nc3ccccc3)C[C@@H]12,inactive,inactive,inactive
COc1ccc(CN(C)C[C@H]2Oc3ccc(NS(C)(=O)=O)cc3C(=O)N([C@H](C)CO)C[C@H]2C)cc1,inactive,inactive,inactive
CC(C)NC(=O)Nc1ccc2c(c1)C(=O)N([C@@H](C)CO)C[C@@H](C)[C@@H](CN(C)Cc1ccc3c(c1)OCO3)O2,inactive,inactive,inactive
COc1ccc(-c2cnc3c(c2)C(=O)N([C@@H](C)CO)C[C@@H](C)[C@@H](CN(C)C(=O)C2CCOCC2)O3)cc1,inactive,inactive,inactive
CCCNC(=O)[C@@H]1c2ccccc2C(=O)N(Cc2cc(F)cc(C(F)(F)F)c2)[C@H]1c1ccc(CO)cc1,inactive,inactive,inactive
O=C1[N-]C(=O)C(c2ccccc2)(c2ccccc2)N1.[Na+],inactive,inactive,inactive
COc1ccc(NC(=O)N(C)C[C@@H]2Oc3ccc(NC(=O)Nc4ccc(C(F)(F)F)cc4)cc3C(=O)N([C@@H](C)CO)C[C@@H]2C)cc1,inactive,inactive,inactive
C[C@@H]1CCCCO[C@@H](CN(C)S(=O)(=O)c2ccccc2)[C@H](C)CN([C@H](C)CO)C(=O)c2cc(NC(=O)Nc3ccccc3)ccc2O1,inactive,inactive,inactive
C[C@@H]1CN([C@@H](C)CO)C(=O)c2cc(NC(=O)Cn3cnnn3)ccc2O[C@@H]1CN(C)S(C)(=O)=O,inactive,inactive,inactive
C[C@@H]1CCCCO[C@@H](CN(C)CC2CCCCC2)[C@@H](C)CN([C@H](C)CO)C(=O)c2cc(NC(=O)CCC(F)(F)F)ccc2O1,inactive,inactive,inactive
CC(=O)O[C@H]1[C@H](Oc2cc(O)cc(O)c2C(=O)c2cc(O)cc(O)c2)O[C@H](CO)[C@@H](OC(=O)c2ccccc2)[C@@H]1O,inactive,inactive,inactive
Cc1noc(C)c1S(=O)(=O)N(C)C[C@@H]1Oc2ccc(NS(=O)(=O)c3ccc(Cl)cc3)cc2CC(=O)N([C@H](C)CO)C[C@@H]1C,inactive,inactive,inactive
O=C(NCCCN1CCOCC1)[C@H]1[C@H](CO)[C@H]2Cn3c(cccc3=O)[C@@H]1N2C(=O)C1CCCCC1,inactive,inactive,inactive
